Some of the results follow.
Test system: PF3D7_0420300 AP2 domain 1 (GST-tagged)
Assay: gcPBM binding intensity (ln(normalized median fluorescence intensity)); higher = stronger DNA binding
Summary of the method: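 GST-tagged P. falciparum DNA-binding domains, expressed in E. coli (about 25 μg on average), were applied for 1 h to an Agilent 4 × 180k array of primer-extended double-stranded 36-bp intergenic genomic probes plus negative controls. The binding buffer was 1× PBS with 1% milk, 0.2 mg/ml BSA, 0.5% salmon testes DNA and 0.03% Triton X-100. Bound protein was detected with Alexa488 anti-GST antibody and scanned at 488 nm. Binding intensity is the highest Masliner-normalised natural-log median intensity across replicate spots of either probe orientation.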

Sequence	gcPBM binding intensity (ln)
ATATATAATCATATGTGTACATATATATTAATTTAA [XGTACX_site2839]	9.17
AATTCAAAATAAAAATGTACATATATCAGAATATGG [XGTACX_site42]	9.35
AAAAATAAGAAAAAGTGTACTTTATTATGTATATAT [XGTACX_site2305]	9.2
ATTATTTTTTTTCTTATACACACCATGCATCAAACT [CACACA_site2128]	9.46
ACTTGTAAGAAACACACACACACACCGATATATATA [CACACA_site4594]	10.4
AAAAAAAAAAAAAAAACACACATTTAATGAACTTAT [CACACA_site1276]	9.44
TATTGAAACCCACACGAACACACGTATTTCATAAAC [CACACA_site251]	9.56
TATAAAAAGCATAACACACACATGTCAATATAAATA [CACACA_site6648]	9.78
TACTTTTATATAGAAAGTACATACAATTCATAGAAT [XGTACX_site2182]	9.11
TTTTTTTTTTTTTTGTGTACATATAATGCACATTAT [XGTACX_site6505]	8.92
ATATATATATATATATGTACATATGTATGTGTTTGT [XGTACX_site397]	9.31
TATACTCATTTTTATACACACTTGTTTTATAAAACG [CACACA_site4561]	9.4
CTATATGTATAAAGTTGTACAGTTTTTCAAAGTTAA [XGTACX_site6652]	9.03
TATATATTTTATTATTGTACGAATTATTTATTTTAC [XGTACX_site8105]	9.3
TACATCATCTATAAGGTGCATTTTAGTTCTATTAAA	9.05
TTTTTTCTAATATCTTTGCCTTTTTCTTTATTTATT [CACACA_negctrl_site1053]	9.52
TTCATTTGAAAACTGTGTACTTAAAAATATACATAT [XGTACX_site176]	9.04
AATATAATATAATGCACACATAAACAAAAAAAAAAT [CACACA_site1304]	9.89
ATATATTTAAATAAATGTACAAATCATAAATTCAAG [XGTACX_site1417]	9.16
TACATATATATAAATACACACACACCCACCTTATAA [CACACA_site9346]	10.1
ATACATATACACATATGTACATATGAAAAGAAAAAT [XGTACX_site6445]	9.5
TTATTAGAAAAATGCACACCAAAAAAAAAAAAAAAA [CACACA_site2522]	9.26
TATATATATTGTGTATGTACATATATATAAATATTG [XGTACX_site433]	9.15

Sequence	gcPBM binding intensity (ln)
ATAATTATATATATATGTACATATTATATATATATA [XGTACX_site4526]	9.15
ATATACATATATATATGTACTGAAAAGAAAAGAATT [XGTACX_site150]	9.29
CATAAATACATACATACACACATATTTATATTTATA [CACACA_site7071]	9.71
TGTTTTTAAATTTAAATCAAAAAATAAAATAAAATA [GTGCAC_negctrl_site355]	8.89
AAGATAACAAGTAATCAATCTAATTATTAATTATAT [CACACA_negctrl_site1713]	9.15
AAAAGAAAAATGTCATATGATATCATATATTTTATA [GTGCAC_negctrl_site185]	9.01
AAAAATATGTGATAATGTACTTTTCATTTTTATTTT [XGTACX_site8544]	9.17
AAATTATGAACATATTGTACATATATATATATATAT [XGTACX_site8269]	9.12
AATTAAATTACTTATACACACATAAAATGTCTGTAT [CACACA_site997]	9.55
CATGTATGTACCATGGTGCAACAATATTTTTAACAA [GTGCAC_site9597]	8.95
ATTATATAAATTATATGTACGTATTTTTTTTTTTTT [XGTACX_site1908]	9.26
GAAAAGAAAAATAAACGTACATAAATATTAACATTA [XGTACX_site8213]	9.2
CAAATAAAAATAAGGAGTACAATTAAAAAAGGAAGG [XGTACX_site4366]	9.59
AAAATAAAAAAGTGTACACATATTAAAATGTATTTA [CACACA_site4424]	9.33
TAAAATTATATAAAGGAACACACATTTTATTTTATT [CACACA_site8423]	9.36
TCATTGTTAAGCTGAAGTACTTATAATTACATCGAG [XGTACX_site6340]	9.04
AATATATTTTAATATACACACATATCTGCTCTTTAA [CACACA_site6130]	9.5
TGTCAATCATATAAATGTACATTTTAAATGAGGTGT [XGTACX_site7391]	9.26
TATTAGCATGTTATTACACACAATATAAAATATATA [CACACA_site1401]	9.34
TGTATAAAACATGGGTGTACTGAACTCAATCATATA [XGTACX_site1215]	9.43
AAAAGTAACAAAGCTACACACATTTAAATAAACATA [CACACA_site1421]	9.69
AAAATAACAAAATAAAGTACTTTTAAAAGATATAAT [XGTACX_site7632]	9.58
GATTTTCTAATTTCTACACACATATAAGAATATTCA [CACACA_site7340]	9.53

Sequence	gcPBM binding intensity (ln)
TTTTTAATTCAAACAATAATATGTTATATTTCAAAT [TGCATGCA_negctrl_site27]	8.88
TTTATTTCTATATTTACATGCAAAGGGTTAGTTATA [TGCATGCA_site983]	9.02
TTTTTTTTTTTCATGTGTACATATATTTTCACTTTA [XGTACX_site4475]	9.37
GATCTTTTTTTTCTTACTTTACAATTTTTTTTTTAC [XGTACX_negctrl_site101]	9.5
AAGAAAAAGAATAGACGGACAACTAATATAAAATAT [XGTACX_site7905]	9.76
GTTTTACACAGACATGCATGTGAAAATTTGATGGTA [TGCATGCA_site308]	9.34
TATCATCATGTATGTACACACATACCTATATTATGT [CACACA_site6768]	9.66
TCTTATTTAATTAAACAAAAGAAAAAGAAAGAAAAG [CACACA_negctrl_site1569]	9.14
TTAGAAGGGATTAAAGTGCAAAATAGGATTAGAGTA	9.41
TACAAGTATAAATAAGCACACATGTGTATATGTACA [CACACA_site7911]	9.6
TTTTTTTTTCCTTCTTGTACATATTATATATACATA [XGTACX_site5988]	9.38
TGGAACGTAATAAAATGTACATACGTTTTTCATATG [XGTACX_site6229]	9.12
AACACATACATATATGCACACATTTTATTCCATTAT [CACACA_site2834]	9.76
TTTTTTTTTTTTTGTACATGCAAATATTATGAACAC [TGCATGCA_site571]	8.85
GACAAATTAATCGATTGTACACAATTTGTTTCGTTG [XGTACX_site35]	9.34
TTCACATATATATAACGTACATTATTATTATTCTGA [XGTACX_site6006]	9.28
TTTTCATATATTTATTGTACATATTACATATATAAT [XGTACX_site2425]	9.4
TTTTATAAATATTTTTGTACACATTTAAATATTATT [XGTACX_site4973]	9.2
ATTTATAAATCAAAGTGTACATATGTTTTATTTTTT [XGTACX_site804]	9.35
TTTTTTTAATAAAAGTGTACCAAATTATATACACAT [XGTACX_site6811]	9.19
AGAGAGAACGGTATAACATGCAATAAATTTCAGAAG [TGCATGCA_site423]	9.41
TTTTATTATATGGAGGTGCATATATAATAATATAAT [GTGCAC_site9477]	9.16
ATCGGTAATATTAACACACACATTTATTTATATTTA [CACACA_site6638]	9.72

Sequence	gcPBM binding intensity (ln)
TTCTTTTTAAATATACTAATTATGTATAAAACAGAA [GTGCAC_negctrl_site131]	8.8
ATGTATGTAATAAAAAGTACATATGTTCATAATAAA [XGTACX_site842]	9.36
TTTTTTTTTTTTTTAACACACATATAAATATTTTTC [CACACA_site6985]	9.11
ATTCTTGTTATATAAGGTACAGAACAAAATATAAAA [XGTACX_site5510]	9.11
TTTGGGATAAAACAAAGTACTAACAAAATATATAAT [XGTACX_site8240]	9.35
TGCATTTTACTTGTTACACACATATAAAATTAACCA [CACACA_site7387]	9.6
TTTTTCTATTCCATTCAACACACAAAAATGTATGCT [CACACA_site8268]	9.37
AAAGTTTTAAGAAAATGTACATAAGTATACATATAT [XGTACX_site1293]	9.18
AAATGGAGTTAATATTGTACATATATATATATATAT [XGTACX_site5452]	9.26
TAATAATAACCGTTATGTACACAATTTTGTGAACAT [XGTACX_site8053]	9.25
GATGGAATCTAATTTACATGCAGTGATATAATAAAT [TGCATGCA_site1031]	9.06
ATTTATTTATTTATATGTACATATATATATATATAT [XGTACX_site339]	9.26
TACAGACAGAAACACACACACACGCATAAAAAAAAA [CACACA_site1514]	10
TATACAATATTTATAACACACATATTTATATAAACT [CACACA_site6932]	9.43
AGAACATTTTCTCAGTGTACTTATATATTTGACATA [XGTACX_site6541]	9.25
ACTAAACAATATGTATGTACATATTTTACATATAAT [XGTACX_site3318]	9.26
ATATATCATGAACCTTGTACGTATATATATATATAT [XGTACX_site239]	9.37
ACTTCCTATATTTATGCATGCATTTTATTAAAAAAT [TGCATGCA_site747]	9.34
TAACAAAAAGCACTTAGTACATATATATATATATAT [XGTACX_site1099]	9.39
AATATAACTTTTTGCACACTTAATTTTTTTTTTTAA [CACACA_site3365]	9.51
